Data: PubChem BioAssay AID686979 (National Center for Advancing Translational Sciences (NCATS), 2013)
Out of some 420,000 compounds screened, about 50,000 (12%) were called active. Inconclusive results, whose numbers are uncertain, are shown with a selection of clear calls. The call rests on the fitted dose curve; in most records, active means well fitted inhibition curve with a large enough effect; inconclusive means small, poorly fitted or top-dose-only effect; inactive means flat fitted curve, though single readings scatter. Potencies of inconclusive entries are left out as doubtful fits.
On the % scale 0 is the no-effect control and ±100 the full control effect; potency means the concentration at half of the fitted maximal effect; tags describe the fitted curve by direction and shape.

Experiment: qHTS for Inhibitors of human tyrosyl-DNA phosphodiesterase 1 (TDP1): qHTS in cells in presence of CPT; further: nearly all actives have a fitted effect of over 55% in size
Details: chicken DT40 Tdp1-/-;hTDP1 cells + 20 nM CPT, ATP luminescence, 48 h; activity change, negative = growth inhibition: at 46.2 µM (top of the series) unless noted
In short: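 Cell growth measured by CellTiter-Glo luminescence after a minimum 48 h, 37 C compound exposure with 20 nM CPT in Tdp1-knockout DT40 cells stably expressing hTDP1, seeded 400/well; qHTS titration format.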
With `O=C(Nc1ccc2c(c1)OCO2)c1ccc(Br)s1` the Potency was inconclusive [inhibitor, single point]. With `CN(c1ccccc1)S(=O)(=O)c1cccc(NC(=O)COc2cccc([N+](=O)[O-])c2)c1` the Potency was inconclusive [inhibitor, single point]. In the case of `CCc1nc2ccc(C(=O)NCCCN3CCCC3=O)cn2c1N(CC)C(C)=O`, the “activity change, negative = growth inhibition” value is reported as inactive: 2.35%. In the case of `CN(C)c1ccc(C2CCc3ccccc3N2C(=O)c2ccccc2)cc1` (centres undefined), the Potency is reported as active: 11.2 µM. For `Cc1ccc(COc2ccc(-c3cc(C(F)(F)F)n4nc(C)cc4n3)cc2)cc1`, the “activity change, negative = growth inhibition” value was inactive: -21.4%. For `Cc1occc1C(=O)N/N=C/c1ccccn1`, the Potency was inconclusive [inhibitor, single point]. In the case of `C[C@H](NC(=O)c1nc[nH]c1C(=O)N[C@@H](CCCCNC(=O)OC(C)(C)C)C(=O)OC(C)(C)C)C(=O)OC(C)(C)C`, the Potency is reported as inconclusive [inhibitor, single point]. For `Cc1ccc(NC(=O)Cc2coc3ccc(C(C)C)cc23)c(C)c1`, the Potency was inconclusive [inhibitor, single point]. With `CCOc1ccc(-c2cn(-c3ccc(C)cc3)c(SCC(=O)Nc3ccc(C)cc3)n2)cc1` the Potency was inconclusive [inhibitor, single point]. In the case of `O=C(Cn1c2ncccc2c(=O)n1-c1ccccc1)NCc1ccccc1Cl`, the Potency is reported as inconclusive [inhibitor, single point]. With `COc1ccc(C2CC(c3ccc(OC)cc3O)=NN2C(=O)c2ccccc2)cc1` (centres undefined) the Potency was active: 20.6 µM. In the case of `CCOC(=O)c1c(NC(=O)C(C)OC(=O)c2ccc(NC(=O)CC#N)cc2)sc2c1CCCC2` (centres undefined), the Potency is reported as active: 23.1 µM. For `CCCCSc1nc(N)c(C#N)c(-c2cccs2)c1C#N`, the Potency was inconclusive [inhibitor, single point]. For `CCN1C(=O)[C@H]2[C@@H](c3ccc(OC)cc3)N[C@]3(CCCN(Cc4ccc(Cl)cc4)C3=O)[C@H]2C1=O`, the Potency was inconclusive [inhibitor, single point]. With `CCS(=O)(=O)c1ccc(O)c(Nc2cc(C)nc(SC)n2)c1` the Potency was inconclusive [inhibitor, single point]. With `CSc1nnc(CCNC(=O)c2ccc(-c3cccc(F)c3)cc2)n1-c1ccc(F)cc1` the activity change, negative = growth inhibition was inactive: 9.4% [at 9.04 µM]. In the case of `Cc1ccccc1-c1cc2nc(NCc3ccccc3F)n(C)c(=O)c2s1`, the Potency is reported as active: 7.31 µM. With `CN(C(=O)c1cccc(NC(=O)Cc2ccc(NC(=O)C3CCCN(C(=O)C4CC4)C3)cc2)c1)C1CCCCC1` (centres undefined) the “activity change, negative = growth inhibition” value was inactive: -6.49%. With `Cc1ccc(C)c(NC(=O)CN(C)C(=O)c2ccccc2Cc2ccccc2)c1` the Potency was inconclusive [inhibitor, single point]. With `O=C(CSc1oc(-c2ccco2)nc1S(=O)(=O)c1ccc(Br)cc1)c1ccccc1` the Potency was inconclusive [inhibitor, single point]. For `CCCCCCCCCCCC(=O)c1c(O)cccc1O`, the Potency was inconclusive [inhibitor, single point]. In the case of `O=C(NCCc1ccccc1F)c1cc(COc2ccc(F)cc2F)on1`, the “activity change, negative = growth inhibition” value is reported as inactive: -22.7%. With `O=C(NCCCCc1ccccc1)c1cccc(NC(=O)c2ccccc2)c1` the Potency was inconclusive [inhibitor, single point]. For `CCOC(=O)c1cc(S(=O)(=O)N2CCC(C)CC2)cn1C`, the Potency was inconclusive [inhibitor, single point]. For `O=C(CS(=O)(=O)Cc1ccccc1)N1CCN(c2cccc(C(F)(F)F)c2)CC1`, the Potency was inconclusive [inhibitor, partial curve]. In the case of `Cc1ccc(S(=O)(=O)C(CNC(=O)c2ccc(F)c(F)c2)c2ccco2)cc1` (centres undefined), the Potency is reported as active: 16.4 µM. In the case of `Cc1cccc(N2CCN(C(=O)COc3noc4nc(C)cc(C)c34)CC2C)c1` (centres undefined), the Potency is reported as inconclusive [inhibitor, single point]. In the case of `O=C(c1ccc(N2CCCCC2)c([N+](=O)[O-])c1)N1CCOCC1`, the “activity change, negative = growth inhibition” value is reported as inactive: 2.32%. In the case of `CSc1ccc2c(c1)C(N1CCN(C)CC1)Cc1ccc(F)cc1S2` (centres undefined), the Potency is reported as inconclusive [inhibitor, single point]. With `O=c1c2c3nc4ccccc4nc3n(/N=C/c3ccco3)c2ncn1CCC1=CCCCC1` the Potency was active: 16.4 µM. For `CCC(C)[C@H]1COCCS(=O)(=O)N1Cc1ccccc1` (some centres undefined), the “activity change, negative = growth inhibition” value was inactive: -7.64%. For `COc1ccc(N2CCN(CC(=O)c3ccc(Cl)cc3)CC2)cc1`, the “activity change, negative = growth inhibition” value was inactive: -23.3%. In the case of `Cc1cc(=O)n2[nH]c(-c3ccsc3-n3c(C)ccc3C)cc2n1`, the Potency is reported as inconclusive [inhibitor, single point]. With `O=C(NCCCN1CCCC1=O)c1ccc(S(=O)(=O)Nc2ccccc2)cc1` the Potency was inconclusive [inhibitor, partial curve]. In the case of `O=C(Oc1ccc(OC(=O)c2ccco2)c(S(=O)(=O)c2ccc(Br)cc2)c1)c1ccco1`, the “activity change, negative = growth inhibition” value is reported as inactive: 12.9%. With `Cn1c(=O)c(C(=O)CCl)c(N)n(Cc2ccccc2)c1=O` the Potency was active: 4.11 µM. In the case of `CC(=O)Nc1ccc(S(=O)(=O)O)c(OC(C)=O)c1`, the “activity change, negative = growth inhibition” value is reported as inactive: 1.37%. In the case of `CCOc1ccc(/C(O)=C2/C(=O)C(=O)N(CCN(CC)CC)C2c2ccco2)cc1` (centres undefined), the Potency is reported as inconclusive [inhibitor, partial curve, poor fit]. In the case of `Cc1ccccc1C(=O)NC(=S)Nc1ccc(N2CCOCC2)cc1`, the Potency is reported as inconclusive [inhibitor, single point]. With `O=C(NCC1CCCO1)/C(=C/c1cn(-c2ccccc2)nc1-c1cccnc1)NC(=O)c1ccccc1` (centres undefined) the Potency was inconclusive [inhibitor, single point]. In the case of `CC(CN1CCCCC1)OC(=O)C(C)(c1ccccc1)c1ccccc1` (centres undefined), the Potency is reported as inconclusive [inhibitor, partial curve]. With `C=C1CCC2C(C)(C)[C@@H](O)CC[C@@]2(C)[C@@H]1COc1ccc2ccc(=O)oc2c1` (some centres undefined) the “activity change, negative = growth inhibition” value was inactive: -18.7%. With `Cc1ccc(S(=O)(=O)c2nc(Nc3ccccc3)sc2Cl)cc1` the Potency was inconclusive [inhibitor, single point]. With `CCCCn1c(=O)c2oc3ccccc3c2n(Cc2cccc(F)c2)c1=O` the Potency was inconclusive [inhibitor, partial curve, poor fit]. For `CCCCc1nc2cc(Cl)ccc2o1`, the “activity change, negative = growth inhibition” value was inactive: -11%. In the case of `Cc1ccc(-c2ocnc2C(=O)N2CCOCC2)cc1`, the “activity change, negative = growth inhibition” value is reported as inactive: -1.45%. With `Cc1cc(C)cc(NC(=O)c2ccc3c(c2)nnn3C2CCCC2)c1` the Potency was active: 1.3 µM. In the case of `Cc1cc(C(=O)NN)n[nH]1`, the activity change, negative = growth inhibition is reported as inconclusive: -35.6% [inhibitor]. In the case of `Cc1nnc2ccc(N3CCCCC3)nn12`, the “activity change, negative = growth inhibition” value is reported as inactive: 27.4%. With `CN(C)C(=O)CCc1ccc2c3c([nH]c2c1)[C@]1(CCc2ccccc2)[C@@H](C(=O)N2CCCCC2)C[C@H](CC(=O)NC(C)(C)C)C(=O)N1CC3` the Potency was inconclusive [inhibitor, single point]. With `CCCCC(=O)Nc1ccc(NC(=O)c2cnccn2)cn1` the “activity change, negative = growth inhibition” value was inactive: -4.96%. For `CC1(C)C(=O)C=C(N2CCCCC2)c2ccccc21`, the Potency was inconclusive [inhibitor, single point]. With `O=C(/C=C/c1ccc(Cl)c([N+](=O)[O-])c1)Nc1cccc(NC(=O)c2ccco2)c1` the Potency was inconclusive [inhibitor, single point]. In the case of `CCOC(=O)c1cccc(NC(=O)c2cc3c(=O)n(C)c4ccccc4c3n2C)c1`, the Potency is reported as inconclusive [inhibitor, single point]. In the case of `O=C(CCCN1C(=O)c2cccnc2Oc2ccc(Cl)cc21)NCc1ccccc1F`, the Potency is reported as inconclusive [inhibitor, single point]. With `O=C1c2ccccc2NC2CCCCCN12` (centres undefined) the “activity change, negative = growth inhibition” value was inactive: -3.18%. With `CCOC(=O)c1c(NC(=O)C2c3ccccc3Oc3ccccc32)sc(C(N)=O)c1C` the Potency was inconclusive [inhibitor, single point]. In the case of `COc1ccc(N2CCN(C(=O)CCc3ccccc3OC)CC2)cc1`, the Potency is reported as inconclusive [inhibitor, single point]. In the case of `CC1CCN(S(=O)(=O)c2nnc(NC(=O)c3ccc(C(C)C)cc3)s2)CC1`, the Potency is reported as inconclusive [inhibitor, single point]. For `CC(C)c1cnc2c(c1SCC(=O)Nc1ccc(OC(F)(F)F)cc1)c(=O)n(C)c(=O)n2C`, the Potency was active: 9.2 µM. For `C=CCNC(=O)COC(=O)c1ccc(Cl)c(S(=O)(=O)N(Cc2ccccc2)c2ccccc2)c1`, the Potency was inconclusive [inhibitor, single point]. For `COc1ccc(Cn2c(=S)[nH]c3cc(C(=O)N4CCCCC4)ccc3c2=O)cc1`, the Potency was inconclusive [inhibitor, single point]. With `COc1ccc(NC(=O)C2CCCN2S(=O)(=O)c2ccc3c(c2)CC(C)N3C(C)=O)cc1OC` (centres undefined) the Potency was inconclusive [inhibitor, partial curve]. In the case of `Cc1ccc(N(Cc2ccccc2)C(=O)c2ccc(F)c(S(=O)(=O)N3CCOCC3)c2)cc1`, the Potency is reported as inconclusive [inhibitor, single point]. For `CCOc1cc(C(=O)Nc2cc3c(cc2N2CCCC2)n(C)c(=O)n3C)cc(OCC)c1OCC`, the “activity change, negative = growth inhibition” value was inactive: -7.06%. With `CCn1c(SCC(=O)NCc2cccs2)nnc1-c1cccs1` the “activity change, negative = growth inhibition” value was inactive: -22.4%. With `CCn1c(SCC(=O)Nc2ccc(C)cc2)nc2nc3c(cc2c1=O)CCCC3` the Potency was inconclusive [inhibitor, single point]. In the case of `CC(C)c1cccc(-c2csc(C(O)c3ccc(F)c(F)c3)n2)c1` (centres undefined), the Potency is reported as inconclusive [inhibitor, single point]. With `Cc1cc2c(cc1C)-n1nnnc1C(N1CCN(CC(=O)NC(C)C)CC1)C(=O)N2` (centres undefined) the Potency was inconclusive [inhibitor, single point].
